Laboratory results reported in PubChem BioAssay (NCI).
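These data come from cells grown in 96-well plates and exposed to compound for 48 hours at five concentrations. GI50 is the concentration that inhibits growth by half.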 Not every entry of the source has a single result; some have several. This list holds those alone. The source may hold further records. For part of these data: Records of one sample usually come from different ranges of test concentrations, which the source does not state; some values may only mark the edge of a range. For part of these data: The values listed for one entry are repeated measurements (runs, samples, wells, individuals or studies). A tag in brackets gives the origin of a value. Letters count within one entry.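 TGI marks complete inhibition of growth.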

Assays:
Assay in all cases: NCI anticancer screen, dose series, 48 h
A549 NSCLC = tested on: A549 NSCLC
CCRF-CEM leukemia = tested on: CCRF-CEM leukemia
HS 578T breast = tested on: HS 578T breast
LOX IMVI melanoma = tested on: LOX IMVI melanoma
MCF7 breast = tested on: MCF7 breast
NCI-H522 lung = tested on: NCI-H522 lung
OVCAR-8 ovarian = tested on: OVCAR-8 ovarian
SF-268 CNS = tested on: SF-268 CNS
T-47D breast = tested on: T-47D breast
TK-10 renal = tested on: TK-10 renal
UACC-257 melanoma = tested on: UACC-257 melanoma
786-0 renal = tested on: 786-0 renal
A498 renal = tested on: A498 renal
DU-145 prostate = tested on: DU-145 prostate
HL-60(TB) leukemia = tested on: HL-60(TB) leukemia
HOP-62 NSCLC = tested on: HOP-62 NSCLC
K-562 leukemia = tested on: K-562 leukemia
MDA-MB-435 = tested on: MDA-MB-435
NCI-H226 lung = tested on: NCI-H226 lung
NCI/ADR-RES ovarian = tested on: NCI/ADR-RES ovarian
OVCAR-3 ovarian = tested on: OVCAR-3 ovarian
OVCAR-4 ovarian = tested on: OVCAR-4 ovarian
RXF 393 renal = tested on: RXF 393 renal
SF-539 CNS = tested on: SF-539 CNS
SK-MEL-28 melanoma = tested on: SK-MEL-28 melanoma
SK-MEL-5 melanoma = tested on: SK-MEL-5 melanoma
SW-620 colon = tested on: SW-620 colon
IGROV1 ovarian = tested on: IGROV1 ovarian
M14 melanoma = tested on: M14 melanoma
MALME-3M melanoma = tested on: MALME-3M melanoma
RXF-631 renal = tested on: RXF-631 renal
SF-295 CNS = tested on: SF-295 CNS
ACHN renal = tested on: ACHN renal
HCC-2998 colon = tested on: HCC-2998 colon
HCT-15 colon = tested on: HCT-15 colon
NCI-H23 lung = tested on: NCI-H23 lung
NCI-H460 lung = tested on: NCI-H460 lung
SK-OV-3 ovarian = tested on: SK-OV-3 ovarian
U251 CNS = tested on: U251 CNS

COc1ccc(Cn2cc(Cn3c(=O)c(-c4nc5ccccc5[nH]4)cc4ccccc43)nn2)c(OC)c1OC was tested, and the TGI (A549 NSCLC) was 1.78 µM and > 100 µM, the TGI (CCRF-CEM leukemia) was 6.43 µM and > 100 µM and the TGI (HS 578T breast) was 873 nM and > 100 µM. The TGI (LOX IMVI melanoma) was 2.66 µM and > 100 µM, the TGI (MCF7 breast) was 897 nM and > 100 µM and the TGI (NCI-H522 lung) was 698 nM and > 100 µM. For the same compound, the TGI (OVCAR-8 ovarian) was 1.97 µM and > 100 µM, the TGI (SF-268 CNS) was 1.97 µM and 26.8 µM and the TGI (T-47D breast) was 1.35 µM and > 100 µM. For the same compound, the TGI (TK-10 renal) was 1.82 µM and 74.4 µM and the TGI (UACC-257 melanoma) was 4.58 µM and > 100 µM.

In the case of O=[N+]([O-])c1ccc(O)c2ncccc12, the GI50 (786-0 renal) was > 100 µM [sample A, 1 test] and 2.93 µM [sample B, 1 test], the TGI (A498 renal) was > 100 µM [sample A, 1 test] and 9.84 µM [sample B, 1 test] and the GI50 (CCRF-CEM leukemia) was > 100 µM [sample A, 1 test] and 2.75 µM [sample B, 1 test]. For the same compound, the GI50 (DU-145 prostate) was > 100 µM [sample A, 1 test] and 3.68 µM [sample B, 1 test], the GI50 (HL-60(TB) leukemia) was > 100 µM [sample A, 1 test] and 2.31 µM [sample B, 1 test] and the TGI (HL-60(TB) leukemia) was > 100 µM [sample A, 1 test] and 5.64 µM [sample B, 1 test]. The TGI (HOP-62 NSCLC) was > 100 µM [sample A, 1 test] and 8.87 µM [sample B, 1 test], the GI50 (K-562 leukemia) was > 100 µM [sample A, 1 test] and 3.17 µM [sample B, 1 test] and the GI50 (MDA-MB-435) was > 100 µM [sample A, 1 test] and 3.31 µM [sample B, 1 test]. The GI50 (NCI-H226 lung) was > 100 µM [sample A, 1 test] and 3.58 µM [sample B, 1 test], the TGI (NCI-H522 lung) was > 100 µM [sample A, 1 test] and 5.63 µM [sample B, 1 test] and the TGI (NCI/ADR-RES ovarian) was > 100 µM [sample A, 1 test] and 9.76 µM [sample B, 1 test]. The TGI (OVCAR-3 ovarian) was > 100 µM [sample A, 1 test] and 6.81 µM [sample B, 1 test], the TGI (OVCAR-4 ovarian) was > 100 µM [sample A, 1 test] and 6.93 µM [sample B, 1 test] and the GI50 (RXF 393 renal) was > 100 µM [sample A, 1 test] and 4.72 µM [sample B, 1 test]. For the same compound, the GI50 (SF-539 CNS) was > 100 µM [sample A, 1 test] and 4.04 µM [sample B, 1 test], the GI50 (SK-MEL-28 melanoma) was > 100 µM [sample A, 1 test] and 5.8 µM [sample B, 1 test] and the TGI (SK-MEL-5 melanoma) was > 100 µM [sample A, 1 test] and 7.79 µM [sample B, 1 test]. The GI50 (SW-620 colon) was > 100 µM [sample A, 1 test] and 3.74 µM [sample B, 1 test], the TGI (T-47D breast) was > 100 µM [sample A, 1 test] and 8.44 µM [sample B, 1 test] and the GI50 (UACC-257 melanoma) was > 100 µM [sample A, 1 test] and 2.26 µM [sample B, 1 test]. The TGI (UACC-257 melanoma) was > 100 µM [sample A, 1 test] and 9.16 µM [sample B, 1 test].

In the case of CCCCCCCCCC(=O)N[C@H]1CCc2cc(OC)c(OC)c(OC)c2-c2ccc(SC)c(=O)cc21, the TGI (IGROV1 ovarian) was 982 nM and > 100 µM, the TGI (M14 melanoma) was 63 nM and 3.33 µM and the TGI (MALME-3M melanoma) was 70.4 nM and > 100 µM. For the same compound, the TGI (NCI-H226 lung) was 53 nM and 3.61 µM, the TGI (OVCAR-8 ovarian) was 179 nM and 10.9 µM and the TGI (RXF-631 renal) was 49.5 nM and 13.2 µM. For the same compound, the TGI (SF-268 CNS) was 162 nM and 2.45 µM and the TGI (SF-295 CNS) was 60 nM and 71.8 µM.

In the case of COc1cc2c3c(n(CCCNCCN4CCOCC4)c(=O)c2cc1OC)-c1cc2c(cc1C3=O)OCO2, the GI50 (ACHN renal) was < 5 nM and 461 nM, the GI50 (HCC-2998 colon) was < 5 nM and 1.12 µM and the TGI (HCC-2998 colon) was 153 nM and 2.53 µM. For the same compound, the TGI (HCT-15 colon) was 1.36 µM [1 test] and > 100 µM [mean of 2 tests], the TGI (HL-60(TB) leukemia) was 1.63 µM [1 test] and > 30.6 µM [mean of 2 tests] and the GI50 (HOP-62 NSCLC) was < 5 nM and 225 nM. For the same compound, the GI50 (MCF7 breast) was < 5 nM [1 test] and 841 nM [mean of 2 tests], the TGI (MCF7 breast) was 519 nM [1 test] and > 100 µM [mean of 2 tests] and the GI50 (NCI-H23 lung) was < 5 nM and 825 nM. The GI50 (NCI-H460 lung) was < 5 nM [1 test] and 254 nM [mean of 2 tests], the TGI (NCI-H460 lung) was 718 nM [1 test] and > 100 µM [mean of 2 tests] and the GI50 (OVCAR-4 ovarian) was 199 nM [1 test] and 2.78 µM [mean of 2 tests]. For the same compound, the GI50 (RXF 393 renal) was 270 nM and 5.83 µM, the TGI (RXF 393 renal) was 1.13 µM and > 100 µM and the GI50 (SF-268 CNS) was 8.01 nM [1 test] and 2.87 µM [mean of 2 tests]. The TGI (SK-MEL-28 melanoma) was 50 µM [1 test] and 4.32 µM [mean of 2 tests], the GI50 (SK-MEL-5 melanoma) was 142 nM [1 test] and 2.39 µM [mean of 2 tests] and the TGI (SK-OV-3 ovarian) was 50 µM and 3.81 µM. The GI50 (U251 CNS) was < 5 nM and 663 nM.
